Experimental data: the supplement of paper PMC3334620
Whole data set: some 33,000 sequences, median “E-score (-0.5 to 0.5)” near -0.035, cut for the highest 2% near 0.35. The list shows a part of the results.

What follows are sequences tested against T1, Pdr3 (UniProt P33200) (assay: PBM E-score (8-mer binding enrichment) (E-score (-0.5 to 0.5)); higher = stronger / more preferred TF binding; most listed sequences are background and not binding sites). Conditions: protein concentration: 200 nM; construct: GST-full length.
T1 sequence: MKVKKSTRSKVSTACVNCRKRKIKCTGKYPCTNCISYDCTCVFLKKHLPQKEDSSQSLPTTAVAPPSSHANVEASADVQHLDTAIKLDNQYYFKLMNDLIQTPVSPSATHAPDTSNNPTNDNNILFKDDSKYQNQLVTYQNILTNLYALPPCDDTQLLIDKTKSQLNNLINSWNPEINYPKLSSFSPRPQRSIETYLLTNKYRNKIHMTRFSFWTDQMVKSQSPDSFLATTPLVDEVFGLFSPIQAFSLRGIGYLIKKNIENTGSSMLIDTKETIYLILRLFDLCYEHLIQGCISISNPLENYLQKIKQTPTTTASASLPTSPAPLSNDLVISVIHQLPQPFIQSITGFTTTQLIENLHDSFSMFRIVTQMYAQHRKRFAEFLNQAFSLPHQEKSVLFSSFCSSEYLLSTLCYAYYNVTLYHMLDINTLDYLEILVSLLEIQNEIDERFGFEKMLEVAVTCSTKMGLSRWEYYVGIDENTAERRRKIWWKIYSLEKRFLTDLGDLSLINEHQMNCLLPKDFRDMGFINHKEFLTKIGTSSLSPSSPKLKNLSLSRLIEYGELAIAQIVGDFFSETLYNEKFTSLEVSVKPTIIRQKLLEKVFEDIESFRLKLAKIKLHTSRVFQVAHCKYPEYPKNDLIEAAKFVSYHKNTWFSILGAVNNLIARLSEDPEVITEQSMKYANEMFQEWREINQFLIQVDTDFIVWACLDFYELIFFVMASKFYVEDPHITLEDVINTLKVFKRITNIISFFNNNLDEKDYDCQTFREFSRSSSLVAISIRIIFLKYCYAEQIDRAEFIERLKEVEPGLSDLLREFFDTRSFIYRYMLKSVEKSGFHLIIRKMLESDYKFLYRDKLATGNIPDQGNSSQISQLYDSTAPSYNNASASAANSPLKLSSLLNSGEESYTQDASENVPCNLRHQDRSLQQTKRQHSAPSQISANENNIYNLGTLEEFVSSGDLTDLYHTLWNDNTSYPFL
In short: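 Universal all-10-mer Agilent arrays, double-stranded by primer extension on fresh or once-stripped slides, were probed with about 100-200 nM GST-tagged yeast transcription factors made by PURExpress. Fluorescent anti-GST detected bound protein, and masliner normalised the scans. E-scores from the Universal PBM Analysis Suite were given to each ungapped eight-base word pooled with its reverse complement.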

Sequence | PBM E-score
CATGATAC | 0.0347
CGTCCCTA | -0.0477
CTGGCTGC | -0.0301
CCAACTGA | -0.224
AAACATGT | 0.00604
CGTCATAA | 0.052
AAATCCAC | -0.147
GTTGCACA | -0.0842
CAAAATTA | 0.0211
CCCCAAGG | -0.24
CTGCTTCA | -0.222
ACGGAATA | 0.445
ACGCCGGA | 0.289
CCCGTCGC | 0.227
AAACACCC | 0.18
ATTCACAG | -0.173
ATGAGAGG | -0.0403
AGCCCGTA | -0.276
ACGAAGAA | 0.0764
AGAGCTTG | -0.158
GTACGATA | -0.287
AACGTTTA | -0.148
GCCACTCC | 0.126
GATGCCGA | 0.221
GGCGTGAC | -0.0861

Sequence | PBM E-score
GCTGGAGA | -0.164
AACATCCT | -0.0912
AGACGGCT | -0.0289
GCCGGGTA | 0.175
ACACTTGC | -0.082
GTATAACA | -0.106
GCTGAGAC | -0.0381
CGAGCTAA | 0.0883
GCTAATGA | -0.206
AGGCCTAT | -0.246
GATGCAAA | -0.0231
GCGGTCCA | 0.0563
GAGGTCAA | -0.12
GAAGAGGC | 0.0822
ATCCAACC | -0.00964
AGCGTAGG | -0.0751
CGTCCGGC | 0.321
AAACCGGT | 0.147
CCGGTTCA | 0.104
CTAGCATA | -0.178
GATAACTA | 0.0209
AACCCGTA | 0.0458
CTGAGCGC | -0.0124
AAGGAGTC | -0.277
CGGAAGGA | 0.396

Sequence | PBM E-score
ACTGATAC | 0.00473
ATTGACAC | -0.162
AAATCTGC | -0.0812
GCTCGCCC | -0.0125
ATGGTTCA | 0.0467
CCTTAGAA | -0.32
GTTCACAA | -0.0345
CTTGATCC | 0.105
AAATGGTA | -0.022
AAAATGCC | 0.0801
CAGTTGAG | -0.249
GCCTCGGA | 0.308
ACACACAT | -0.154
GACTCTCA | -0.111
GGCCGGGA | 0.39
CAGATAGC | -0.0206
TACGTCTA | -0.239
AGGTCGTC | 0.0231
AATCACAT | 0.0509
AAGTACTT | -0.059
GCTGCGAA | 0.016
CGACACAA | -0.184
ACACAGCC | 0.0243
GGTTCTTA | -0.0791
AGATCACT | 0.0795

Sequence | PBM E-score
GCTAGGAC | -0.156
TCCCTCAA | -0.0327
ACGTGTCG | -0.158
GATTCGGA | 0.29
ATGGTCGC | 0.113
CATTGGCC | -0.139
GGATATAA | 0.163
CCTACCCA | -0.214
CATCTAGA | -0.0867
TGTTAACA | -0.218
ACTTTTAG | -0.127
ACATAAGC | -0.134
GTGCACCA | -0.112
ATACTCAG | 0.126
CCATGATA | -0.121
AGAGACCT | -0.226
AAAACGGA | 0.314
CGTATCAC | -0.0177
CATTGTAC | -0.0479
ACAGCAAC | 0.131
GTTTCCTA | -0.191
ATCCTAAG | -0.171
CAGCGGGG | 0.128
GATACAAA | 0.0878
AAAGACGT | -0.0659

Sequence | PBM E-score
CATGGTAG | -0.18
AGAACGCT | -0.209
CCAATACG | -0.0731
GACACGGA | 0.393
AAGAAATT | 0.229
GACCTACA | -0.0527
AAGCGTGG | -0.159
ACTTCAGC | -0.119
GGATTACC | 0.0727
TGTGACAA | -0.123
GATAGGAA | -0.0623
TTCCAGAA | 0.0582
CTTACCCA | -0.0857
CTGCAATA | -0.0588
GAGATACA | 0.159
AGGATCAG | -0.133
CGTATGCA | 0.0709
CAGCCAGA | -0.0284
GAAAGCTC | -0.148
AAAAGAGT | -0.208
AGAGAGGC | -0.286
CAATATTG | -0.0365
AGATTCAA | 0.0373
AATTGTCA | -0.109
CGGGGCCC | 0.354

Sequence | PBM E-score
TAGACAGA | -0.0482
ACCGATTG | 0.022
AACATGCT | -0.0525
GTAACGAA | -0.169
CCCATACG | -0.159
CCGCGGTA | 0.473
CAACGAGA | 0.00536
GCTCTTAC | -0.0194
TGCTCAAA | -0.0775
GAGGGTCA | -0.245
GTACATGA | -0.242
CTGGCATA | -0.0359
TCTAGTCA | -0.196
CACCACGC | -0.244
CAACGAGG | -0.0193
CATAAGCC | -0.0797
AATGCTCT | -0.165
CCCTCCTA | -0.135
GCAAATAC | -0.177
GACTGAGC | -0.183
CATCATAC | 0.0298
ATTATCGA | -0.0732
GGGGTCGA | -0.0275
ATATCGAG | 0.043
ACGAAGCA | -0.126

Sequence | PBM E-score
AAGCATAG | -0.32
ACAGTTGG | -0.133
GATGGAAC | 0.06
GCCTAGTA | -0.163
AGAGTTAC | -0.193
CATTATAA | 0.0802
AATGTTTG | -0.0916
GGTAACGA | -0.0165
ACGTATGA | -0.0247
ACGATTTA | 0.0861
GGAATCCA | 0.312
CGGGGCAC | 0.00786
CCGGAATC | 0.471
CTACGGCC | 0.0985
CGTTCCCC | 0.146
TGAATGCA | -0.0756
ACCCTACA | -0.144
CCGCAGGC | 0.167
CATTCGAC | 0.0517
AAGCAGAA | -0.00953
AATTGGGC | -0.131
CCTAGTGC | -0.0662
